# Data as given in the supplement of paper PMC8728848.
# The other results are listed elsewhere or left out.
# How the values were obtained:
# Assay in all cases: glycan array binding signal (z-score within array); higher = stronger binding
# Details in all cases: glycan notation: IUPAC condensed, linker removed
# [1] = molecular target: Neu5Ac(a2-6)Gal(b1-4)GlcNAc(b1-2)Man(a1-3)[GlcNAc(b1-4)][Neu5Ac(a2-6)Gal(b1-4)GlcNAc(b1-2)Man(a1-6)]Man(b1-4)GlcNAc(b1-4)GlcNAc
# Method in brief: (§1)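 The Consortium for Functional Glycomics database supplied 3228 glycan arrays, of which those lacking an available protein sequence were dropped. The binding signal, a within-array Z-score, was averaged across arrays of the same protein sequence and across linkers. Negative scores can be read as non-binding.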
# [2] = molecular target: Neu5Ac(a2-6)Gal(b1-4)GlcNAc(b1-2)Man(a1-3)[Man(a1-6)]Man(b1-4)GlcNAc(b1-4)GlcNAc
# Method in brief: as §1
# [3] = molecular target: Neu5Ac(a2-6)Gal(b1-4)GlcNAc(b1-2)Man(a1-3)[Neu5Ac(a2-3)Gal(b1-4)GlcNAc(b1-2)Man(a1-6)]Man(b1-4)GlcNAc(b1-4)GlcNAc
# Method in brief: as §1
# [4] = molecular target: Neu5Ac(a2-6)Gal(b1-4)GlcNAc(b1-2)Man(a1-3)[Neu5Ac(a2-6)Gal(b1-4)GlcNAc(b1-2)Man(a1-6)]Man(b1-4)GlcNAc(b1-4)GlcNAc
# Method in brief: as §1
# [5] = molecular target: Neu5Ac(a2-6)Gal(b1-4)GlcNAc(b1-2)Man(a1-3)[Neu5Ac(a2-6)Gal(b1-4)GlcNAc(b1-2)Man(a1-6)]Man(b1-4)GlcNAc(b1-4)[Fuc(a1-6)]GlcNAc
# Method in brief: as §1
# [6] = molecular target: Neu5Ac(a2-6)Gal(b1-4)GlcNAc(b1-2)Man(a1-6)Man(b1-4)GlcNAc(b1-4)GlcNAc
# Method in brief: as §1
# [7] = molecular target: Neu5Ac(a2-6)Gal(b1-4)GlcNAc(b1-2)Man(a1-6)[Gal(b1-4)GlcNAc(b1-2)Man(a1-3)]Man(b1-4)GlcNAc(b1-4)GlcNAc
# Method in brief: as §1
# [8] = molecular target: Neu5Ac(a2-6)Gal(b1-4)GlcNAc(b1-2)Man(a1-6)[GlcNAc(b1-2)Man(a1-3)]Man(b1-4)GlcNAc(b1-4)GlcNAc
# Method in brief: as §1
# [9] = molecular target: Neu5Ac(a2-6)Gal(b1-4)GlcNAc(b1-2)Man(a1-6)[Man(a1-3)]Man(b1-4)GlcNAc(b1-4)GlcNAc
# Method in brief: as §1
# [10] = molecular target: Neu5Ac(a2-6)Gal(b1-4)GlcNAc(b1-2)[Neu5Ac(a2-6)Gal(b1-4)GlcNAc(b1-4)]Man(a1-3)[GlcNAc(b1-4)][Neu5Ac(a2-6)Gal(b1-4)GlcNAc(b1-2)[Neu5Ac(a2-6)Gal(b1-4)GlcNAc(b1-6)]Man(a1-6)]Man(b1-4)GlcNAc(b1-4)GlcNAc
# Method in brief: as §1
# [11] = molecular target: Neu5Ac(a2-6)Gal(b1-4)GlcNAc(b1-2)[Neu5Ac(a2-6)Gal(b1-4)GlcNAc(b1-4)]Man(a1-3)[GlcNAc(b1-4)][Neu5Ac(a2-6)Gal(b1-4)GlcNAc(b1-4)Man(a1-6)]Man(b1-4)GlcNAc(b1-4)GlcNAc
# Method in brief: as §1
# [12] = molecular target: Neu5Ac(a2-6)Gal(b1-4)GlcNAc(b1-2)[Neu5Ac(a2-6)Gal(b1-4)GlcNAc(b1-6)]Man(a1-6)[Neu5Ac(a2-6)Gal(b1-4)GlcNAc(b1-2)Man(a1-3)][GlcNAc(b1-4)]Man(b1-4)GlcNAc(b1-4)GlcNAc
# Method in brief: as §1
# [13] = molecular target: Neu5Ac(a2-6)Gal(b1-4)GlcNAc(b1-3)Gal(b1-3)GlcNAc
# Method in brief: as §1
# [14] = molecular target: Neu5Ac(a2-6)Gal(b1-4)GlcNAc(b1-3)Gal(b1-4)GlcNAc
# Method in brief: as §1
# [15] = molecular target: Neu5Ac(a2-6)Gal(b1-4)GlcNAc(b1-3)Gal(b1-4)GlcNAc(b1-2)Man(a1-3)[Neu5Ac(a2-6)Gal(b1-4)GlcNAc(b1-3)Gal(b1-4)GlcNAc(b1-2)Man(a1-6)]GalNAc
# Method in brief: as §1
# [16] = molecular target: Neu5Ac(a2-6)Gal(b1-4)GlcNAc(b1-3)Gal(b1-4)GlcNAc(b1-3)Gal(b1-4)GlcNAc
# Method in brief: as §1
# [17] = molecular target: Neu5Ac(a2-6)Gal(b1-4)GlcNAc(b1-3)Gal(b1-4)GlcNAc(b1-3)Gal(b1-4)GlcNAc(b1-2)Man(a1-3)[Neu5Ac(a2-6)Gal(b1-4)GlcNAc(b1-3)Gal(b1-4)GlcNAc(b1-3)Gal(b1-4)GlcNAc(b1-2)Man(a1-6)]GalNAc
# Method in brief: as §1
# [18] = molecular target: Neu5Ac(a2-6)Gal(b1-4)GlcNAc(b1-3)Gal(b1-4)GlcNAc(b1-3)GalNAc
# Method in brief: as §1
# [19] = molecular target: Neu5Ac(a2-6)Gal(b1-4)GlcNAc(b1-3)Gal(b1-4)GlcNAc(b1-3)[Neu5Ac(a2-6)Gal(b1-4)GlcNAc(b1-3)Gal(b1-4)GlcNAc(b1-6)]GalNAc
# Method in brief: as §1
# [20] = molecular target: Neu5Ac(a2-6)Gal(b1-4)GlcNAc(b1-3)Gal(b1-4)GlcNAc(b1-6)[Gal(b1-3)]GalNAc
# Method in brief: as §1
# [21] = molecular target: Neu5Ac(a2-6)Gal(b1-4)GlcNAc(b1-3)Gal(b1-4)[Fuc(a1-3)]GlcNAc(b1-3)Gal(b1-4)[Fuc(a1-3)]GlcNAc
# Method in brief: as §1
# [22] = molecular target: Neu5Ac(a2-6)Gal(b1-4)GlcNAc(b1-3)GalNAc
# Method in brief: as §1
# [23] = molecular target: Neu5Ac(a2-6)Gal(b1-4)GlcNAc(b1-3)[Neu5Ac(a2-6)Gal(b1-4)GlcNAc(b1-6)]GalNAc
# Method in brief: as §1
# [24] = molecular target: Neu5Ac(a2-6)Gal(b1-4)GlcNAc(b1-6)GalNAc
# Method in brief: as §1
# [25] = molecular target: Neu5Ac(a2-6)Gal(b1-4)GlcNAc(b1-6)[Gal(b1-3)GlcNAc(b1-3)]Gal(b1-4)Glc
# Method in brief: as §1
# [26] = molecular target: Neu5Ac(a2-6)Gal(b1-4)GlcNAc(b1-6)[Gal(b1-3)]GalNAc
# Method in brief: as §1
# [27] = molecular target: Neu5Ac(a2-6)Gal(b1-4)GlcNAc6S
# Method in brief: as §1
# Neu5Ac(a2-6)GalNAc = molecular target: Neu5Ac(a2-6)GalNAc
# Method in brief: as §1
# [28] = molecular target: Neu5Ac(a2-6)GalNAc(b1-4)GlcNAc
# Method in brief: as §1
# [29] = molecular target: Neu5Ac(a2-6)GalNAc(b1-4)GlcNAc6S
# Method in brief: as §1
binder,measurement,setting,value
"CC1G-10077 (Coprinopsis cinerea), A8NDT7 (protein) MALNEGVYWIRNSRFTNKVLDLDAANVAKGTSILDFNEHGTFNENHNQLWIVERFQSRDTYLIRSVHSNLVLDLSQGLSANGTPILCWTQHGGTNQQWRIEWVKDDNKTPLYRIVSVATGTAISHNEDDSSAYTVAWSVDDGPKQLWSFDPFVTPLLYRLRVKSTSRVLDLAAASADNGTLALAWEQHTAITKRNQLWWLPYRSGAEEYTIQCLETSTVADLSGGNSGNGTPIYGWQSHGGRNQQWKFEPTSDSGDYYHIKNVEGGSVMDAYMNDSQKRVGGWSNNGGDNQKWLLDPLPSPGPGWVLIQNGGTGKFLCSTPSGDIGTADGPETVYDYSVQWRFIQREYTGVYHVVNRATGAYLRQIGTSMPSIGLAEENDDELKDWWMLETYDNSEIGLASIISRWTGNVLDHYGGVSVQALDNNTENSYRSWAIIPARDWLTSFSLVNGQGGLCLAAQYAREETRLSTTANVNDFHAQWVFRKPSGSSGYTIQNKYNNHYVGGTSARWELVVCCNKYFGIRNTSTQKYLAIEDGQVTFQDQDMTDRKQCWELCSGRATDTSGNDYDLIYMDDDLLEVMIPWVGDKQGDLKHYIEKRATKKPPKDKGGWQLPAAGLIKKPKFNDIRQLLQELIEQWEWDVVNEEREQIQTLVSIDEAEARRLLGRRPHPDIVAAYQRSRSSTLFRIDRQGYFNIAGDRYVNIQGQYGDDSYFHIALPVGVRFGREQIRRFLRDSLDRSTSVTITPTTCKPPSGGPDYNRDPDSDGDNSWIKWTIAVVGTSAIKHSEL",glycan array binding signal (z-score),[1],-0.487
same,glycan array binding signal (z-score),[2],-0.4
same,glycan array binding signal (z-score),[3],-0.447
same,glycan array binding signal (z-score),[4],-0.326
same,glycan array binding signal (z-score),[5],-0.509
same,glycan array binding signal (z-score),[6],-0.428
same,glycan array binding signal (z-score),[7],0.398
same,glycan array binding signal (z-score),[8],-0.37
same,glycan array binding signal (z-score),[9],-0.503
same,glycan array binding signal (z-score),[10],-2.17
same,glycan array binding signal (z-score),[11],-1.09
same,glycan array binding signal (z-score),[12],-0.462
same,glycan array binding signal (z-score),[13],-0.459
same,glycan array binding signal (z-score),[14],-0.463
same,glycan array binding signal (z-score),[15],-0.105
same,glycan array binding signal (z-score),[16],-0.379
same,glycan array binding signal (z-score),[17],-0.354
same,glycan array binding signal (z-score),[18],-0.516
same,glycan array binding signal (z-score),[19],-0.428
same,glycan array binding signal (z-score),[20],-0.355
same,glycan array binding signal (z-score),[21],-0.434
same,glycan array binding signal (z-score),[22],-0.494
same,glycan array binding signal (z-score),[23],-0.461
same,glycan array binding signal (z-score),[24],-0.437
same,glycan array binding signal (z-score),[25],-0.06
same,glycan array binding signal (z-score),[26],-0.494
same,glycan array binding signal (z-score),[27],-0.453
same,glycan array binding signal (z-score),Neu5Ac(a2-6)GalNAc,-0.497
same,glycan array binding signal (z-score),[28],-0.403
same,glycan array binding signal (z-score),[29],-0.225
